{
  "source": "PubChem BioAssay AID504332",
  "about": "(National Center for Advancing Translational Sciences (NCATS), 2011)",
  "note": "Out of some 350,000 compounds screened, about 31,000 (8.9%) were called active. The inconclusive results got no clear call from the source; some entries with a clear call stand among them for comparison. The call rests on the fitted dose curve; in most records, active means well fitted inhibition curve with a large enough effect; inconclusive means small, poorly fitted or top-dose-only effect; inactive means no such curve, though single readings can be large or run the other way. Potencies of inconclusive entries are doubtful fits and often do not repeat. On the % scale 0 is the no-effect control and ±100 the full control effect; potency means the concentration at half of the fitted maximal effect; tags describe the fitted curve by direction and shape.",
  "data": [
    {"target": "Histone-lysine N-methyltransferase EHMT2 (Homo sapiens) (UniProt Q96KQ7)", "sequence (Q96KQ7 whole entry, looked up)": "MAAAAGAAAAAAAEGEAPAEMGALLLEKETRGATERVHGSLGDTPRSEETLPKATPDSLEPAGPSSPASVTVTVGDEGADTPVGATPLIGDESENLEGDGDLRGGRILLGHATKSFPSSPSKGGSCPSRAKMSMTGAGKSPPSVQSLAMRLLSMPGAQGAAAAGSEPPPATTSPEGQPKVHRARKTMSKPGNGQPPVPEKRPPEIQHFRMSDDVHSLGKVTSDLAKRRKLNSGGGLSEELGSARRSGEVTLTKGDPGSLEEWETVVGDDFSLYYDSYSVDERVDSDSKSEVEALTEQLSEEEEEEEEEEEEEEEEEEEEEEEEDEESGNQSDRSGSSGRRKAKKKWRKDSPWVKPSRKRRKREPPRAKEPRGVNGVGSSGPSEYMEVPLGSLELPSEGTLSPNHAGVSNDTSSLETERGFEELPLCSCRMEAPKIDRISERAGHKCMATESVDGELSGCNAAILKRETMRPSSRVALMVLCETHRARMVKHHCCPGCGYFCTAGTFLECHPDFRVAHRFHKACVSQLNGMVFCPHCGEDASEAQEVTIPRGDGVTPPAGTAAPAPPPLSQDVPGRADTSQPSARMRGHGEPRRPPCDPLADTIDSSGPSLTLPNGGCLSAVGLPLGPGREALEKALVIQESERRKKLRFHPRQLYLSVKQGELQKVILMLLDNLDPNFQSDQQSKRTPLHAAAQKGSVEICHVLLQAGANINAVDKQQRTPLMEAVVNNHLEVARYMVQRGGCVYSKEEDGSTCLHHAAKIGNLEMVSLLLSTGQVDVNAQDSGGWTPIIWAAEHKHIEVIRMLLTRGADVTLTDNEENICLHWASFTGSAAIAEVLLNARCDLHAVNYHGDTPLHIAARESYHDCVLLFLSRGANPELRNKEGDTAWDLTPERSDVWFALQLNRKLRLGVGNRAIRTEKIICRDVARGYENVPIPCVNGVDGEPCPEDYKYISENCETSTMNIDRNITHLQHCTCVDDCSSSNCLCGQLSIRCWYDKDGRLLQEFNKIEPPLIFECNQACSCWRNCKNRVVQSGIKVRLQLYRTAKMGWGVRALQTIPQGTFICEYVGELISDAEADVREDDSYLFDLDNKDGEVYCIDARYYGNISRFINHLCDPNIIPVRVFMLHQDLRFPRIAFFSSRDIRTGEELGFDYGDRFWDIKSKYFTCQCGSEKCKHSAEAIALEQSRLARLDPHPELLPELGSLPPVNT", "test": "qHTS Assay for Inhibitors of Histone Lysine Methyltransferase G9a; further: nearly all actives have a fitted effect of over 75% in size", "conditions": "G9a H3K9 monomethylation, AlphaScreen, 2 h; activity, negative = inhibition: at 59 µM (top of the series) unless noted", "procedure,_shortened": "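Compounds were preincubated with 20 nM G9a for 15 min, after which biotinylated H3K9 peptide (500 nM) and SAM (20 uM) started a 2 h room-temperature reaction. Monomethylated product was quantified by antibody-based AlphaScreen chemiluminescence.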", "values": [
      {"smiles": "COc1ccc(OCC(=O)NNC(=S)NC(=O)C2CC2)cc1", "Potency": "active: 20 µM"},
      {"smiles": "CC(=O)C1=C(O)C(=O)N(c2ccc(Br)cn2)C1c1ccccc1[N+](=O)[O-]", "note": "(configuration not stated)", "Potency": "active: 39.8 µM"},
      {"smiles": "CCN(CC)c1ccc(C2Nc3ccccc3-c3cc(C)nn32)cc1", "note": "(configuration not stated)", "Potency": "active: 22.4 µM"},
      {"smiles": "Cc1ccc(S(=O)(=O)c2nc(-c3ccc(F)cc3)oc2N2CCN(c3ccccc3)CC2)cc1", "Potency": "inconclusive: 10 µM [inhibitor, partial curve]"},
      {"smiles": "O=C(CC12CC3CC(CC(C3)C1)C2)NCc1ccccc1", "Potency": "inactive"},
      {"smiles": "C/C(=C\\c1ccccc1)CN1CCC(C(=O)N2CCC(C)CC2)CC1", "Potency": "active: 10 µM"},
      {"smiles": "CC(=O)OCC1(C)CN(c2ccccc2)N(C(=O)c2ccc(F)cc2)C1=O", "note": "(configuration not stated)", "Potency": "inconclusive: 44.7 µM [inhibitor, partial curve, poor fit]"},
      {"smiles": "CCOCCCNC(=O)/C(C#N)=C/c1ccc(Cl)c([N+](=O)[O-])c1", "Potency": "inconclusive: 11.2 µM [inhibitor, partial curve, poor fit]"},
      {"smiles": "CN(C)c1cc(C(F)(F)F)nc(-c2ccccn2)n1", "activity, negative = inhibition": "inconclusive: -56.4% [inhibitor]"},
      {"smiles": "COc1ccc(OC)c(NC(=O)Cn2cccc2)c1", "Potency": "inconclusive: 50.1 µM [inhibitor, partial curve, poor fit]"},
      {"smiles": "CCCCN(C(=O)CN1C(=O)C2CCCCC2C1=O)c1c(N)n(CCC)c(=O)[nH]c1=O", "note": "(configuration not stated)", "Potency": "inconclusive: 4.47 µM [inhibitor, partial curve, poor fit]"},
      {"smiles": "CCCCCCC(=O)N(O)C1CC(=O)N(Cc2ccccc2)C1=O", "note": "(configuration not stated)", "Potency": "active: 2.51 µM"},
      {"smiles": "Nc1c(C(=O)Nc2ccccc2)sc2nc3c(cc12)CN(Cc1ccccc1)CC3", "Potency": "inconclusive: 28.2 µM [inhibitor, single point]"},
      {"smiles": "Nc1ccc(Nc2ccccc2)c(Cl)c1", "Potency": "inconclusive: 28.2 µM [inhibitor, partial curve, poor fit]"},
      {"smiles": "CCCN(CC1CCCO1)C(=O)CCc1nnc(-c2cc(C)on2)o1", "note": "(configuration not stated)", "Potency": "inactive"},
      {"smiles": "Cc1cccc(N2CC(C(=O)Nc3ccccc3N3CCCC3)CC2=O)c1C", "note": "(configuration not stated)", "Potency": "active: 70.8 µM"},
      {"smiles": "O=C(Cn1c(=O)oc2cc(S(=O)(=O)N3CCCC3)ccc21)NC1CCCCC1", "Potency": "inconclusive: 70.8 µM [inhibitor, partial curve]"},
      {"smiles": "COc1cccc(-c2nc(CS(=O)(=O)c3ccccc3)no2)c1", "activity, negative = inhibition": "inactive: -50.3% [at 12.7 µM]"},
      {"smiles": "NCCC[C@H](N)CC(=O)N[C@H]1CNC(=O)[C@@H]([C@@H]2C[C@H](O)N=C(N)N2)NC(=O)/C(=C/NC(N)=O)NC(=O)[C@@H](CO)NC(=O)[C@@H](CO)NC1=O", "Potency": "inactive"},
      {"smiles": "O=C(CNc1ccc(F)cc1F)NC(=O)NCc1ccco1", "activity, negative = inhibition": "inconclusive: -60.9% [inhibitor]"},
      {"smiles": "O=C(NC(=S)N1CCN(Cc2ccc3c(c2)OCO3)CC1)c1ccc(Cl)cc1", "Potency": "inconclusive: 39.8 µM [inhibitor, single point]"},
      {"smiles": "Cc1cc(=O)n2[nH]c(-c3ccc(Cl)cc3)cc2n1", "Potency": "inconclusive: 31.6 µM [inhibitor, partial curve, poor fit]"},
      {"smiles": "CCOc1ccccc1NCc1cc(=O)oc2cc(C)ccc12", "Potency": "active: 44.7 µM"},
      {"smiles": "COc1ccc2[nH]c3c(=O)n(Cc4ccc(C(=O)N5CCCCCC5)cc4)c(=S)[nH]c3c2c1", "Potency": "inconclusive: 10 µM [inhibitor, partial curve, poor fit]"},
      {"smiles": "CCOC(=O)c1scc(-c2ccc(C)cc2)c1S(=O)(=O)Nc1cc(OC)ccc1OC", "Potency": "inconclusive: 22.4 µM [inhibitor, partial curve, poor fit]"},
      {"smiles": "O=C(Nc1nccs1)c1cc(-c2ccco2)nc2ccccc12", "Potency": "inconclusive: 25.1 µM [inhibitor, single point]"},
      {"smiles": "CC(=Nc1cc(C(=O)c2ccccc2)ccc1N)C1=C(O)CC(C)(C)CC1=O", "Potency": "inactive"},
      {"smiles": "COc1ccccc1NS(=O)(=O)c1cc(NC(=O)c2ccc3c(c2)OCCO3)ccc1C", "Potency": "inconclusive: 89.1 µM [inhibitor, single point]"},
      {"smiles": "C/C(=N\\O)c1c(C)c2ccccc2n1C", "Potency": "inconclusive: 89.1 µM [inhibitor, single point]"},
      {"smiles": "O=C(CN1CC(=O)Oc2ccccc21)OCC(=O)c1ccccc1", "Potency": "inconclusive: 89.1 µM [inhibitor, single point]"},
      {"smiles": "COc1ccc(/C=N/Nc2nc(C)cc(=O)[nH]2)cc1OC", "Potency": "inconclusive: 39.8 µM [inhibitor, single point]"},
      {"smiles": "O=C(O)/C=C/C(=O)Nc1ccc(Cc2ccc(NC(=O)/C=C/C(=O)O)cc2)cc1", "Potency": "active: 44.7 µM"},
      {"smiles": "O=C(NC(NC(=S)Nc1ccccc1C(=O)O)C(Cl)(Cl)Cl)c1ccccc1", "note": "(configuration not stated)", "Potency": "active: 25.1 µM"},
      {"smiles": "COc1ccccc1C1/C(=C(/O)c2ccc(Cl)cc2)C(=O)C(=O)N1CCN1CCOCC1", "note": "(configuration not stated)", "activity, negative = inhibition": "inconclusive: -102% [inhibitor]"},
      {"smiles": "O=C(Cn1c(=O)c2cccn2c2ccccc21)NCc1ccccc1F", "Potency": "inconclusive: 22.4 µM [inhibitor, partial curve, poor fit]"},
      {"smiles": "Cc1cc(OC(=O)c2ccccc2[N+](=O)[O-])c([N+](=O)[O-])c(=O)[nH]1", "Potency": "inconclusive: 89.1 µM [inhibitor, single point]"},
      {"smiles": "CC(=O)Oc1ccc2c(c1)OC(c1ccccc1)CC21CC(C)(C)NC(=O)N1", "note": "(configuration not stated)", "Potency": "inconclusive: 89.1 µM [inhibitor, single point]"},
      {"smiles": "COc1cccc(/C(N)=N/OC(=O)Cc2ccccc2[N+](=O)[O-])c1", "Potency": "inconclusive: 50.1 µM [inhibitor, partial curve, poor fit]"},
      {"smiles": "Cc1nc(N2CCCC2)c2c(C(=O)N3CCN(c4cc(Cl)ccc4C)CC3)c(C)oc2n1", "Potency": "inconclusive: 8.91 µM [inhibitor, partial curve, poor fit]"},
      {"smiles": "COc1ccc(N2C(=O)C(Cl)=C(N(CCO)Cc3ccccc3)C2=O)cc1", "Potency": "active: 50.1 µM"},
      {"smiles": "COc1ccc(Nc2cc(C(=O)NCc3cccnc3)c3ccccc3n2)c(OC)c1", "Potency": "active: 44.7 µM"},
      {"smiles": "COc1ccc(/C(O)=C2/C(=O)C(=O)N(CCN(C)C)C2c2ccccn2)cc1OC", "note": "(configuration not stated)", "Potency": "inconclusive: 2.51 µM [inhibitor, partial curve, poor fit]"}
    ]}
  ]
}
